Assay results published in the supplement of paper PMC8948288.
The sequences are guide strands of siRNAs; only the seed at positions 2 to 7 varies.

Experiments:
H4 = experiment: cell viability relative to siNT1 (ATP content); H4 human neuroglioma and GL261 mouse glioma; higher = less toxic; details: siRNA concentration 10 nM; 96 h; human
Description: (§1)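 Arrayed screen of all 4096 6mer seeds. Each seed sits at guide-strand positions 2-7 of a neutral 19mer siRNA backbone (siNT1-based, passenger strand 2'-O-methyl modified at positions 1-2 to block RISC loading, 3' DNA overhangs). The guide strand is built here as U + seed + ACAUGUAAACCA. Cells were reverse transfected in triplicate in 384-well plates (H4 at 10 nM, GL261 at 25 nM) with Lipofectamine RNAiMAX. Viability was read as ATP content (CellTiter-Glo) 96 h after transfection and normalised to siNT1 (%).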

GL261 = experiment: as above; details: siRNA concentration 25 nM; 96 h; mouse
Description: as §1
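Further: cells reverse transfected with siRNA duplexes via lipid reagent, ATP read by luminescence, triplicate wells, values scaled to mean viability with non-targeting control siNT1.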

## UAUCGCGACAUGUAAACCA
H4
  cell viability: 79.3%
GL261
  cell viability: 52%

## UAUCGCUACAUGUAAACCA
H4
  cell viability: 90.1%
GL261
  cell viability: 68.1%

## UAUCGGAACAUGUAAACCA
H4
  cell viability: 90.2%
GL261
  cell viability: 52.4%

## UAUCGGCACAUGUAAACCA
H4
  cell viability: 77.3%
GL261
  cell viability: 73%

## UAUCGGGACAUGUAAACCA
H4
  cell viability: 87.5%
GL261
  cell viability: 44.9%

## UAUCGGUACAUGUAAACCA
H4
  cell viability: 74%
GL261
  cell viability: 37.1%

## UAUCGUAACAUGUAAACCA
H4
  cell viability: 106%
GL261
  cell viability: 63.9%

## UAUCGUCACAUGUAAACCA
H4
  cell viability: 108%
GL261
  cell viability: 41.2%

## UAUCGUGACAUGUAAACCA
H4
  cell viability: 110%
GL261
  cell viability: 58.3%

## UAUCGUUACAUGUAAACCA
H4
  cell viability: 112%
GL261
  cell viability: 51.1%

## UAUCUAAACAUGUAAACCA
H4
  cell viability: 115%
GL261
  cell viability: 49%

## UAUCUACACAUGUAAACCA
H4
  cell viability: 95.6%
GL261
  cell viability: 38.9%

## UAUCUAGACAUGUAAACCA
H4
  cell viability: 106%
GL261
  cell viability: 45.5%

## UAUCUAUACAUGUAAACCA
H4
  cell viability: 93%
GL261
  cell viability: 38.1%

## UAUCUCAACAUGUAAACCA
H4
  cell viability: 105%
GL261
  cell viability: 31.6%

## UAUCUCCACAUGUAAACCA
H4
  cell viability: 90.3%
GL261
  cell viability: 23.7%

## UAUCUCGACAUGUAAACCA
H4
  cell viability: 102%
GL261
  cell viability: 42.2%

## UAUCUCUACAUGUAAACCA
H4
  cell viability: 76.1%
GL261
  cell viability: 21.3%

## UAUCUGAACAUGUAAACCA
H4
  cell viability: 86.3%
GL261
  cell viability: 64.3%

## UAUCUGCACAUGUAAACCA
H4
  cell viability: 66.9%
GL261
  cell viability: 24.7%

## UAUCUGGACAUGUAAACCA
H4
  cell viability: 42.6%
GL261
  cell viability: 31.9%

## UAUCUGUACAUGUAAACCA
H4
  cell viability: 102%
GL261
  cell viability: 69.8%

## UAUCUUAACAUGUAAACCA
H4
  cell viability: 101%
GL261
  cell viability: 62.4%

## UAUCUUCACAUGUAAACCA
H4
  cell viability: 59.7%
GL261
  cell viability: 10.9%

## UAUCUUGACAUGUAAACCA
H4
  cell viability: 81.7%
GL261
  cell viability: 64.5%

## UAUCUUUACAUGUAAACCA
H4
  cell viability: 106%
GL261
  cell viability: 41%

## UAUGAAAACAUGUAAACCA
H4
  cell viability: 106%
GL261
  cell viability: 54.8%

## UAUGAACACAUGUAAACCA
H4
  cell viability: 94.7%
GL261
  cell viability: 40.2%

## UAUGAAGACAUGUAAACCA
H4
  cell viability: 112%
GL261
  cell viability: 44.7%

## UAUGAAUACAUGUAAACCA
H4
  cell viability: 113%
GL261
  cell viability: 64.6%

## UAUGACAACAUGUAAACCA
H4
  cell viability: 93.7%
GL261
  cell viability: 39.6%

## UAUGACCACAUGUAAACCA
H4
  cell viability: 60.5%
GL261
  cell viability: 23%

## UAUGACGACAUGUAAACCA
H4
  cell viability: 114%
GL261
  cell viability: 53.2%

## UAUGACUACAUGUAAACCA
H4
  cell viability: 97.8%
GL261
  cell viability: 32.9%

## UAUGAGAACAUGUAAACCA
H4
  cell viability: 112%
GL261
  cell viability: 51.5%

## UAUGAGCACAUGUAAACCA
H4
  cell viability: 62.3%
GL261
  cell viability: 25.9%

## UAUGAGGACAUGUAAACCA
H4
  cell viability: 84.7%
GL261
  cell viability: 33.2%

## UAUGAGUACAUGUAAACCA
H4
  cell viability: 76.3%
GL261
  cell viability: 56.5%

## UAUGAUAACAUGUAAACCA
H4
  cell viability: 103%
GL261
  cell viability: 53.6%

## UAUGAUCACAUGUAAACCA
H4
  cell viability: 79.1%
GL261
  cell viability: 42.7%

## UAUGAUGACAUGUAAACCA
H4
  cell viability: 101%
GL261
  cell viability: 41.6%

## UAUGAUUACAUGUAAACCA
H4
  cell viability: 101%
GL261
  cell viability: 51.2%

## UAUGCAAACAUGUAAACCA
H4
  cell viability: 116%
GL261
  cell viability: 55.4%

## UAUGCACACAUGUAAACCA
H4
  cell viability: 39%
GL261
  cell viability: 27.6%

## UAUGCAGACAUGUAAACCA
H4
  cell viability: 100%
GL261
  cell viability: 43.7%

## UAUGCAUACAUGUAAACCA
H4
  cell viability: 92.6%
GL261
  cell viability: 47%

## UAUGCCAACAUGUAAACCA
H4
  cell viability: 125%
GL261
  cell viability: 50.6%

## UAUGCCCACAUGUAAACCA
H4
  cell viability: 78.8%
GL261
  cell viability: 36.2%

## UAUGCCGACAUGUAAACCA
H4
  cell viability: 106%
GL261
  cell viability: 48.3%

## UAUGCCUACAUGUAAACCA
H4
  cell viability: 34.5%
GL261
  cell viability: 36.5%

## UAUGCGAACAUGUAAACCA
H4
  cell viability: 104%
GL261
  cell viability: 55.8%

## UAUGCGCACAUGUAAACCA
H4
  cell viability: 67.5%
GL261
  cell viability: 41.9%

## UAUGCGGACAUGUAAACCA
H4
  cell viability: 93.2%
GL261
  cell viability: 44.8%

## UAUGCGUACAUGUAAACCA
H4
  cell viability: 99.8%
GL261
  cell viability: 35.2%

## UAUGCUAACAUGUAAACCA
H4
  cell viability: 95.1%
GL261
  cell viability: 56.3%

## UAUGCUCACAUGUAAACCA
H4
  cell viability: 81.5%
GL261
  cell viability: 44.5%

## UAUGCUGACAUGUAAACCA
H4
  cell viability: 87.6%
GL261
  cell viability: 49.2%

## UAUGCUUACAUGUAAACCA
H4
  cell viability: 88.6%
GL261
  cell viability: 36.8%

## UAUGGAAACAUGUAAACCA
H4
  cell viability: 116%
GL261
  cell viability: 82.6%

## UAUGGACACAUGUAAACCA
H4
  cell viability: 72.7%
GL261
  cell viability: 34.4%

## UAUGGAGACAUGUAAACCA
H4
  cell viability: 81.7%
GL261
  cell viability: 72.8%

## UAUGGAUACAUGUAAACCA
H4
  cell viability: 83.8%
GL261
  cell viability: 52.8%

## UAUGGCAACAUGUAAACCA
H4
  cell viability: 94.5%
GL261
  cell viability: 50.5%

## UAUGGCCACAUGUAAACCA
H4
  cell viability: 36.1%
GL261
  cell viability: 29.9%

## UAUGGCGACAUGUAAACCA
H4
  cell viability: 91.8%
GL261
  cell viability: 50.4%

## UAUGGCUACAUGUAAACCA
H4
  cell viability: 77.5%
GL261
  cell viability: 33.3%

## UAUGGGAACAUGUAAACCA
H4
  cell viability: 93%
GL261
  cell viability: 65.7%

## UAUGGGCACAUGUAAACCA
H4
  cell viability: 41.7%
GL261
  cell viability: 36.7%

## UAUGGGGACAUGUAAACCA
H4
  cell viability: 68.6%
GL261
  cell viability: 55.9%

## UAUGGGUACAUGUAAACCA
H4
  cell viability: 83.6%
GL261
  cell viability: 38.9%

## UAUGGUAACAUGUAAACCA
H4
  cell viability: 95.3%
GL261
  cell viability: 52.1%

## UAUGGUCACAUGUAAACCA
H4
  cell viability: 69.9%
GL261
  cell viability: 29%

## UAUGGUGACAUGUAAACCA
H4
  cell viability: 105%
GL261
  cell viability: 44.9%

## UAUGGUUACAUGUAAACCA
H4
  cell viability: 105%
GL261
  cell viability: 51.7%

## UAUGUAAACAUGUAAACCA
H4
  cell viability: 80.5%
GL261
  cell viability: 46.6%

## UAUGUACACAUGUAAACCA
H4
  cell viability: 82.6%
GL261
  cell viability: 12.1%

## UAUGUAGACAUGUAAACCA
H4
  cell viability: 104%
GL261
  cell viability: 50.6%

## UAUGUAUACAUGUAAACCA
H4
  cell viability: 75.8%
GL261
  cell viability: 42.9%

## UAUGUCAACAUGUAAACCA
H4
  cell viability: 118%
GL261
  cell viability: 41.8%

## UAUGUCCACAUGUAAACCA
H4
  cell viability: 34.5%
GL261
  cell viability: 13.6%

## UAUGUCGACAUGUAAACCA
H4
  cell viability: 90.2%
GL261
  cell viability: 43.7%

## UAUGUCUACAUGUAAACCA
H4
  cell viability: 84.9%
GL261
  cell viability: 16.7%

## UAUGUGAACAUGUAAACCA
H4
  cell viability: 97.3%
GL261
  cell viability: 50.8%

## UAUGUGCACAUGUAAACCA
H4
  cell viability: 103%
GL261
  cell viability: 41%

## UAUGUGGACAUGUAAACCA
H4
  cell viability: 69.5%
GL261
  cell viability: 26.4%

## UAUGUGUACAUGUAAACCA
H4
  cell viability: 59.4%
GL261
  cell viability: 15.3%

## UAUGUUAACAUGUAAACCA
H4
  cell viability: 96.8%
GL261
  cell viability: 56.4%

## UAUGUUCACAUGUAAACCA
H4
  cell viability: 70.8%
GL261
  cell viability: 29.4%

## UAUGUUGACAUGUAAACCA
H4
  cell viability: 108%
GL261
  cell viability: 62.2%

## UAUGUUUACAUGUAAACCA
H4
  cell viability: 71.1%
GL261
  cell viability: 33%

## UAUUAAAACAUGUAAACCA
H4
  cell viability: 103%
GL261
  cell viability: 70.7%

## UAUUAACACAUGUAAACCA
H4
  cell viability: 97.6%
GL261
  cell viability: 56.7%

## UAUUAAGACAUGUAAACCA
H4
  cell viability: 95.4%
GL261
  cell viability: 63%

## UAUUAAUACAUGUAAACCA
H4
  cell viability: 88.8%
GL261
  cell viability: 67.6%

## UAUUACAACAUGUAAACCA
H4
  cell viability: 99.4%
GL261
  cell viability: 66.8%

## UAUUACCACAUGUAAACCA
H4
  cell viability: 59.5%
GL261
  cell viability: 26.6%

## UAUUACGACAUGUAAACCA
H4
  cell viability: 103%
GL261
  cell viability: 55.1%

## UAUUACUACAUGUAAACCA
H4
  cell viability: 89%
GL261
  cell viability: 54.7%

## UAUUAGAACAUGUAAACCA
H4
  cell viability: 88%
GL261
  cell viability: 52.1%

## UAUUAGCACAUGUAAACCA
H4
  cell viability: 84%
GL261
  cell viability: 42.7%

## UAUUAGGACAUGUAAACCA
H4
  cell viability: 90.5%
GL261
  cell viability: 71.2%

## UAUUAGUACAUGUAAACCA
H4
  cell viability: 89.2%
GL261
  cell viability: 40%

## UAUUAUAACAUGUAAACCA
H4
  cell viability: 102%
GL261
  cell viability: 49.3%

## UAUUAUCACAUGUAAACCA
H4
  cell viability: 83%
GL261
  cell viability: 64.8%

## UAUUAUGACAUGUAAACCA
H4
  cell viability: 101%
GL261
  cell viability: 56.3%

## UAUUAUUACAUGUAAACCA
H4
  cell viability: 108%
GL261
  cell viability: 63.1%

## UAUUCAAACAUGUAAACCA
H4
  cell viability: 83.7%
GL261
  cell viability: 55.5%

## UAUUCACACAUGUAAACCA
H4
  cell viability: 60.2%
GL261
  cell viability: 46.8%

## UAUUCAGACAUGUAAACCA
H4
  cell viability: 77.3%
GL261
  cell viability: 65.3%

## UAUUCAUACAUGUAAACCA
H4
  cell viability: 94.2%
GL261
  cell viability: 42.8%

## UAUUCCAACAUGUAAACCA
H4
  cell viability: 97.9%
GL261
  cell viability: 67.8%

## UAUUCCCACAUGUAAACCA
H4
  cell viability: 72.3%
GL261
  cell viability: 40.4%

## UAUUCCGACAUGUAAACCA
H4
  cell viability: 104%
GL261
  cell viability: 61.9%
